Data taken from PubChem BioAssay (Tox21).
Inconclusive results are not listed. Unless noted, the call rests on the fitted dose curve. Some structures have more than one record in an assay (separate samples or runs), and their calls can disagree. A number of entries come with more than one value. The other results are left out here. There may be further records. Values given together repeat one measurement (runs, samples, wells, individuals or studies). What stands in brackets tells the records apart. Letters hold for one entry only.

Key:
[1] = p53 small molecule agonists, cell-based qHTS assay with rat liver microsomes (AID 1963578)
How it was run: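 p53RE-bla cells, 4,000/well, pre-incubated 5 h, then given compounds plus rat liver microsomes (0.5 mg/mL final) and NADPH (0.5 mg/mL final). Incubation 16 h at 37 C; beta-lactamase reporter read by LiveBLAzer fluorescence after 2 h at room temperature.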

[2] = cAMP Responsive Elements (CRE) small molecule antagonists, cell-based qHTS assay (AID 1963591; active means well fitted inhibition curve with a large enough effect in the signal ratio in the repeat runs, not every such curve was filed as active; the % refers to the signal ratio)
How it was run: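 CRE-bla HEK293T cells were plated 18 h at 37 °C/5% CO2, pinned with compound in DMSO, then stimulated with NKH477 at 0.25 uM final for 3 h. LiveBLAzer B/G FRET substrate was added and plates incubated 2 h at room temperature.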
Potency means the concentration at half of the fitted maximal effect.

C1=Cc2cccc3cccc1c23
Potency [1]: active: 35.7 µM [sample A] and inactive [sample B]

CCOS(=O)(=O)OCC
Potency [1]: active: 23 µM [sample A] and inactive [sample B]

OC(c1ccc(Cl)cc1)(c1cncnc1)c1ccccc1Cl (stereo not drawn)
Potency [2]: active: 55.4 µM [sample A] and inactive [sample B]
